Results on 58 molecules are retold here after PMC4336329 (PLoS ONE, 2015).

Screen size: about 310,000 compounds; about 2,200 (0.71%) showed an effect of 50% or more. The effect is printed as a negative number. The list shows a part of the results.

This experiment deals with human ether-à-go-go-related gene (hERG) potassium channel (human, UniProt Q12809). In words: primary screen, population patch clamp on CHO cells stably expressing hERG.
human ether-à-go-go-related gene (hERG) potassium channel, sequence (Q12809 whole entry, looked up): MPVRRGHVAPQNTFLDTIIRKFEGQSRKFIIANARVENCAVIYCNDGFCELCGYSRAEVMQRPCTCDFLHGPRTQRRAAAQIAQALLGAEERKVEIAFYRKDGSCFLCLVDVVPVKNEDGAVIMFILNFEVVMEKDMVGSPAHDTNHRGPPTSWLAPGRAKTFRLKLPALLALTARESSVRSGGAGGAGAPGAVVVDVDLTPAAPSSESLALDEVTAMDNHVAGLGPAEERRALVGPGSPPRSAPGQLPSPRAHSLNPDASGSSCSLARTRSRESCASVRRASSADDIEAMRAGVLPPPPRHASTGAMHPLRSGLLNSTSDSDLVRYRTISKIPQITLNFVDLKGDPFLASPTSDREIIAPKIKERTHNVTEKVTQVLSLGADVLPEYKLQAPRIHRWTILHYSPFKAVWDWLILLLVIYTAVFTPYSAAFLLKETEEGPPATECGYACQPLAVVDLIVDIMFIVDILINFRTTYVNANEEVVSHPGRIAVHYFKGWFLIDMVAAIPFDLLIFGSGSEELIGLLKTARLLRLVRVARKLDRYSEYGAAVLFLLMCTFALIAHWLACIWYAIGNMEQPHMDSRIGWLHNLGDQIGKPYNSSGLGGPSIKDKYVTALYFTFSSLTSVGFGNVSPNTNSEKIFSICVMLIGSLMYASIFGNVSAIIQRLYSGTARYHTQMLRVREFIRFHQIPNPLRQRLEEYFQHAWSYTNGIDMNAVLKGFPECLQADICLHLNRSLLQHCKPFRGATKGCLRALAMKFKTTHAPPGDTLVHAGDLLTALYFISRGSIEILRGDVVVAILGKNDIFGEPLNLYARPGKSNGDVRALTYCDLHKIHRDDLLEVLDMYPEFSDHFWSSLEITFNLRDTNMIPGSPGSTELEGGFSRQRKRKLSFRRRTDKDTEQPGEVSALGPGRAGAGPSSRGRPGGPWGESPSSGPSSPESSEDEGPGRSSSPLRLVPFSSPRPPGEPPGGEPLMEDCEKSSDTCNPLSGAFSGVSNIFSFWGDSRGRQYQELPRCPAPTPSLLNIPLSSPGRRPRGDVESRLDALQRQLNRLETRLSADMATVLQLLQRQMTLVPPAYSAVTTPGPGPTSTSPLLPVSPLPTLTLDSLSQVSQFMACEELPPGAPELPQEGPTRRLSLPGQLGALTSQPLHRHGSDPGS
As to `CC(C)NC(=S)N/N=C/c1ccc2c(c1)OCCO2`, the “hERG current change (%, negative = inhibition) at 1uM” value is reported as -0.153%. For `CCN(CC)c1ccc(/C=C(/C#N)C(=O)NC(C)C)o1`, the “hERG current change (%, negative = inhibition) at 1uM” value came to 8.51%.

`O=C(CSc1nnc2c(n1)[nH]c1ccccc12)Nc1ccc(N2CCOCC2)cc1`: the “hERG current change (%, negative = inhibition) at 1uM” value is 11.6%. In the case of `CC(C)Cn1c(SCC(=O)N2CCCCC2)nc2ccccc2c1=O`, the “hERG current change (%, negative = inhibition) at 1uM” value is listed as -5.24%. `Cc1cc(NS(=O)(=O)c2ccc(NC(=O)Nc3ccc4c(c3)OCO4)cc2)no1`: the “hERG current change (%, negative = inhibition) at 1uM” value stood at 15.7%.

For the molecule `Cc1c(NC(=O)C(C)OC(=O)c2ccc(Br)o2)c(=O)n(-c2ccccc2)n1C` (stereo not shown), the “hERG current change (%, negative = inhibition) at 1uM” value is recorded as 13.9%. Consider `COc1cc([N+](=O)[O-])ccc1NC(=S)NCc1ccccn1`, for which the “hERG current change (%, negative = inhibition) at 1uM” value is listed as 8.38%.

Turning to `CCOC(=O)C(=CNc1cccc(N)n1)C(=O)OCC`, the “hERG current change (%, negative = inhibition) at 1uM” value is -5.43%. For the molecule `N#CCN1CCN(CC(=O)Nc2ccc(OCc3ccccc3)cc2)CC1`, the “hERG current change (%, negative = inhibition) at 1uM” value worked out at 6.88%.

As for `Cc1ccc(C(=O)N/N=C2\CC3CC=CC23)c(C)c1` (stereo not shown), the “hERG current change (%, negative = inhibition) at 1uM” value is 10.8%. Regarding `CCOc1ccccc1CNS(=O)(=O)c1csc(C(N)=O)c1`, the “hERG current change (%, negative = inhibition) at 1uM” value was 16.4%. As for `CCOc1ccc(CCNC(=O)COC(=O)Cc2ccc(F)cc2)cc1OCC`, the “hERG current change (%, negative = inhibition) at 1uM” value stood at 1.13%. As to `CC(C)(C)S(=O)(=O)/C(C#N)=N/Nc1ccc(S(C)(=O)=O)cc1`, the “hERG current change (%, negative = inhibition) at 1uM” value is reported as 16.4%. The figure for `O=C(O)CCCCCNC(=O)C(=O)C1C(=O)Nc2ccccc21` (stereo not shown) is 12.5%; for `CCc1ccc(OCC(=O)N(C)CCC#N)c(Br)c1` it is -0.573%. On to `COc1cccc(CNC(=O)CCC2CCCN(C3CCOCC3)C2)c1` (stereo not shown), for which the “hERG current change (%, negative = inhibition) at 1uM” value amounted to 4.76%. The figure for `CCOC(=O)C1CCCN(c2nc3ccccc3nc2NS(=O)(=O)c2ccc(C)cc2)C1` (stereo not shown) is -12.4%.

In the case of `COc1ccccc1OC(=O)CCc1nc2ccccc2s1`, the “hERG current change (%, negative = inhibition) at 1uM” value is reported as -1.48%.

Consider `CCN(CC)S(=O)(=O)c1ccc(/C=C/C(=O)OCC(=O)Nc2cccnc2Cl)cc1`, for which the “hERG current change (%, negative = inhibition) at 1uM” value was determined as 1.45%.

As to `CCOC(=O)C(=O)Nc1ccccc1C(=O)OC`, the “hERG current change (%, negative = inhibition) at 1uM” value was 10.2%. As to `Cc1sc2nc(SCC(=O)N3CCCCC3)[nH]c(=O)c2c1C`, the “hERG current change (%, negative = inhibition) at 1uM” value turned out to be 6.38%. The result for `CC(C)C(=O)N1CCN(c2ccccc2NC(=S)NC(=O)Cc2ccccc2)CC1` reads 5%; that for `Cc1ccc(C(=O)NNC(=O)CSc2nnc(-c3ccncc3)n2C)cc1`, 10%. The figure for `NC(=O)CSc1c[nH]c2ccccc12` is -0.731%. As to `COc1ccc(/C=C2\SC(=S)N(NS(=O)(=O)c3ccc(C)cc3)C2=O)c(OC)c1`, the “hERG current change (%, negative = inhibition) at 1uM” value came to 12.2%.

Regarding `Cc1ccc(C)c(-c2[nH]ncc2CN2CCCC(CO)(Cc3ccccc3C)C2)c1` (stereo not shown), the “hERG current change (%, negative = inhibition) at 1uM” value is on record as -5.7%. The figure for `Cc1cccc(OCCc2c(C)[nH]c(=S)[nH]c2=O)c1` is 5.54%; for `CC(=O)N1CC(=O)Nc2ccc(C)cc2C1c1ccccc1` (stereo not shown) it is 12.4%; for `CC(=O)Nc1ccc(C#Cc2ccc(NC(C)=O)cc2)cc1` it is 13%. The result for `CCN(CC(=O)Nc1c(F)cccc1F)C(=O)Cc1n[nH]c(=O)c2ccccc12` reads 20%. The figure for `Cc1ccccc1-n1nc(SCC(=O)O)sc1=S` is 15%.

Regarding `NC(=O)CN1CCN(C(=O)Nc2ccccc2)CC1`, the “hERG current change (%, negative = inhibition) at 1uM” value was determined as 0.355%. `O=C(C1CCCN1S(=O)(=O)c1ccc(Cl)c(Cl)c1)N1CCCCC1` (stereo not shown): the “hERG current change (%, negative = inhibition) at 1uM” value is listed as 9.67%.

For `O=C(COc1ccc(Br)cc1Br)NN1C(=O)c2ccccc2C1=O`, the “hERG current change (%, negative = inhibition) at 1uM” value is -12.6%. The figure for `Cn1c(SCc2nc3ccccc3[nH]2)nnc1-c1cccnc1` is 13.7%; for `CCOc1ccc(NC(=O)CSc2nnc(-c3ccccn3)n2C)cc1` it is 8.33%. On to `CCOc1ccc(OCCC(=O)OCC(=O)Nc2ccc3c(c2)OCCO3)cc1`, for which the “hERG current change (%, negative = inhibition) at 1uM” value is listed as -0.445%. The figure for `CCOC(=O)C1CCN(CC(=O)Nc2c(C(=O)OC)[nH]c3ccc(Cl)cc23)CC1` is -8.95%; for `CC(/C=N/NC(=O)c1ccc2nc(C)[nH]c2c1)=C\c1ccccc1` it is -3.8%; for `O=C1Nc2ccccc2/C1=C/c1ccnc2ccccc12` it is 8.23%.

Take `Cc1ccccc1S(=O)(=O)Cc1ccc(C(=O)NCCc2ccccc2)o1`: the “hERG current change (%, negative = inhibition) at 1uM” value was found to be 15.8%. Turning to `COC(=O)c1c(NC(=O)CC2NCCNC2=O)sc2c1CCCC2` (stereo not shown), the “hERG current change (%, negative = inhibition) at 1uM” value is reported as 6.79%.

Take `COc1ccccc1CCN=C(N)NS(=O)(=O)c1cc(F)ccc1F`: the “hERG current change (%, negative = inhibition) at 1uM” value is given as 14%. For the molecule `Cc1cc(Nc2ccccc2)nc(-c2ccccc2O)n1`, the “hERG current change (%, negative = inhibition) at 1uM” value is 8.47%. For `O=C(CSc1nc2c(c(=O)n1-c1ccc(Cl)cc1)SCC2)N1CCOCC1`, the “hERG current change (%, negative = inhibition) at 1uM” value was -0.284%.

In the case of `O=[N+]([O-])c1cc(-c2ccc(C(=S)N3CCOCC3)o2)ccc1Cl`, the “hERG current change (%, negative = inhibition) at 1uM” value is on record as 15.4%. Take `Cc1ccc(N(CC(=O)NC2CCCC2)C(=O)Cn2nnc(-c3ccccc3F)n2)cc1`: the “hERG current change (%, negative = inhibition) at 1uM” value came out at 4.58%. Consider `COCCCNC(=S)NC1CC2CCCC(C1)N2Cc1ccco1` (stereo not shown), for which the “hERG current change (%, negative = inhibition) at 1uM” value is reported as -1.06%. With `O=C(CSCc1c(Cl)cccc1Cl)N1CCOCC1`, the “hERG current change (%, negative = inhibition) at 1uM” value is 5.11%. In the case of `CNC(=O)NNC(=O)c1csc(-c2ccc(C(F)(F)F)cc2Cl)n1`, the “hERG current change (%, negative = inhibition) at 1uM” value is reported as 9.78%.

`COc1cc(C(=O)Nc2nc3ccccc3s2)ccc1OCc1c(C)noc1C`: the “hERG current change (%, negative = inhibition) at 1uM” value amounted to 1.68%. As to `Cc1ccc(NC(=O)CN2C(=O)NC3(CCCC3)C2=O)cc1S(=O)(=O)N1CCCCC1`, the “hERG current change (%, negative = inhibition) at 1uM” value is given as -0.377%.

As for `CCOC(=O)N1CCN(CC(=O)n2c(C)c(C)c3ccccc32)CC1.O=C(O)C(=O)O`, the “hERG current change (%, negative = inhibition) at 1uM” value was determined as 11.5%. As to `Cc1ccc(S(=O)(=O)N2CCOC2CNC(=O)C(=O)NCc2cccnc2)cc1` (stereo not shown), the “hERG current change (%, negative = inhibition) at 1uM” value turned out to be 15.5%. Consider `C/C(Cc1ccccc1)=N\NC(=O)c1ccccn1`, for which the “hERG current change (%, negative = inhibition) at 1uM” value was 16.4%. On to `CCC1=NN2C(=N)/C(=C\c3cccn3-c3ccc(C)c(C)c3)C(=O)N=C2S1`, for which the “hERG current change (%, negative = inhibition) at 1uM” value turned out to be 6.59%.

On to `O=C(Cn1c2c(c(-c3ccccc3Cl)cc1=O)CCC2)NCC1CCCO1` (stereo not shown), for which the “hERG current change (%, negative = inhibition) at 1uM” value was 7.16%. Take `CC(OC(=O)C1CC1C)C(=O)Nc1ncc(Cl)cc1Cl` (stereo not shown): the “hERG current change (%, negative = inhibition) at 1uM” value was 8.07%.
